Assay results reported in the supplement of paper PMC11417369.
± gives the standard deviation of the averaged measurements. The list shows a part of the results.

Test system: PfAP2-EXP AP2 domain (GST-tagged)
Experiment: gcPBM binding intensity (ln(normalized median fluorescence intensity)); higher = stronger DNA binding
Summary of the method: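 DNA-binding domains from P. falciparum, fused to GST and produced in E. coli, were put on an Agilent 4 × 180k double-stranded probe array for 1 h in 1× PBS holding 1% milk, 0.2 mg/ml BSA, 0.5% salmon testes DNA and 0.03% Triton X-100. Probes were primer-extended, 36 bp long and drawn from intergenic genomic regions, with negative controls included. After Alexa488 anti-GST antibody detection and a 488 nm scan, binding intensity was set as the highest Masliner-normalised natural-log median intensity across replicate spots of either probe orientation.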

| Sequence | gcPBM binding intensity (ln) |
| --- | --- |
| TTTTCTTTTACAAAGGGTACATAATTTAAATTCATA [XGTACX_site3876] | 8.35 ± 0.4 |
| TTTCTTCTGCATTATGCACACTATAATTCGTTAAAA [CACACA_site5568] | 9.04 ± 0.26 |
| ATAATATAAATATTAACACACATCCTTTTATGTATA [CACACA_site6685] | 8.46 ± 0.29 |
| TTTATATATTATACATGTACATATTTATTTATATAA [XGTACX_site3474] | 8.57 ± 0.28 |
| CTTATATTAAAAACTTGTACACATGTTAAGAATTTT [XGTACX_site5857] | 8.43 ± 0.28 |
| TATATGCACTTAATATGTACACAAAAAAAAAAAAAA [XGTACX_site6199] | 8.43 ± 0.53 |
| AAATAAGCATATACAAACATGCATACATATAAATAA [CACACA_negctrl_site246] | 8.85 ± 0.32 |
| AAAAAAAAAAAATCATGTACTTATTTTTCATTGTTG [XGTACX_site1542] | 8.22 ± 0.26 |
| TATTTAAAAGTATATACACACAACTGGAATGAAAAG [CACACA_site4126] | 9.04 ± 0.52 |
| CATTATGTCATAAATGCACACATATATATATACATA [CACACA_site8454] | 8.59 ± 0.38 |
| AAAATTAAAAAAATAAATACATTATATAATTAAAAA [CACACA_negctrl_site1426] | 8.3 ± 0.33 |
| TATTTTAATCGTAAGTGTACTCTTTTAAGTATATGT [XGTACX_site8591] | 8.52 ± 0.31 |
| ATTATAACACCTCCCCCCCTTTTTTTATGAAGACCA [CACACA_negctrl_site1043] | 10.6 ± 0.18 |
| TATGTATGCCCTAATGCATGTGAACAAAATAATATA [TGCATGCA_site407] | 8.89 ± 0.33 |
| AACAGACATAGACACACACACATATATTTATTTATA [CACACA_site7571] | 8.64 ± 0.4 |
| TTTTTTAAATTTTGAATTATAACTACATTAAAGAAA [GTGCAC_negctrl_site279] | 8.11 ± 0.45 |
| ATGCAAATAATATAAAGTACACAACATCGCCCAAAG [XGTACX_site1825] | 9.05 ± 0.38 |
| TGTTGTAACAAAAGTACACACACATTTCTATAAATT [CACACA_site8894] | 8.45 ± 0.23 |
| ATTACATAACAATATACACACTATTGATTAAAGAGA [CACACA_site5602] | 8.52 ± 0.4 |

| Sequence | gcPBM binding intensity (ln) |
| --- | --- |
| TTTATTAGATAACGATAAACGAAAAAAAAAAAATAA [GTGCAC_negctrl_site81] | 8.46 ± 0.53 |
| ATAATATAAATAAAGCGTACTTAATTTTATATATAT [XGTACX_site4626] | 8.29 ± 0.18 |
| TTTTTTTTTTTTTTTACACACTATAGGGAAAAAAAA [CACACA_site1916] | 8.23 ± 0.39 |
| AAAAATATAATATATCTAAAATTTTTCATTAAATAT [XGTACX_negctrl_site274] | 7.91 ± 0.38 |
| ATAAATAAAAATACATGAACAGGTCAGGTTATTTTT [CACACA_negctrl_site1007] | 8.12 ± 0.36 |
| TTATATATAGAATAAACATGCATTTGTATATGAATA [TGCATGCA_site604] | 8.69 ± 0.46 |
| ACATATATATATTTATATATATATATATATATGTGA [CACACA_negctrl_site613] | 8.32 ± 0.057 |
| TCACATACATTACTTACACACCATATTAATATATAC [CACACA_site8047] | 8.93 ± 0.38 |
| AATAAAAAATAAAAAATAAACAGTATACATATATAT [GTGCAC_negctrl_site31] | 8.7 ± 0.42 |
| TGTATATAAACAAGGGGTACAATAATATAAATAAAT [XGTACX_site8675] | 8.85 ± 0.44 |
| TCATATTAATTTGATAGTACATATACTTTGAAGTCC [XGTACX_site3767] | 8.43 ± 0.36 |
| ATATAATATTACAAATGTACTTTAAAAAATTAGGAG [XGTACX_site3897] | 8.65 ± 0.42 |
| TTGTTTCAAGAAAAAATCGAAAAACATAGAAAAAAA [XGTACX_negctrl_site615] | 8.53 ± 0.47 |
| ACATATAAAATATATACACACATATAAATACATTAA [CACACA_site3867] | 8.38 ± 0.41 |
| TATATATCAAAAATATGTACACAGAAATATATATTA [XGTACX_site6997] | 8.72 ± 0.4 |
| TTGCAATAATGTTGCACACTAAATAGTCATATATAA [CACACA_site263] | 8.41 ± 0.17 |
| ATTCTATATATATAAACACACAAATATTTTTATATA [CACACA_site1677] | 8.39 ± 0.35 |
| TTTTAGTGAAATGAGTGTACATTATATATTTTTTTT [XGTACX_site4892] | 8.38 ± 0.3 |
| ATATAAGGAAGGGATGCACACAAAAGGGTACATAAG [CACACA_site9328] | 8.84 ± 0.31 |

| Sequence | gcPBM binding intensity (ln) |
| --- | --- |
| AAGACTAATCTAGGTAGTACTTATATATCTTTATTT [XGTACX_site4572] | 8.37 ± 0.24 |
| TTTGGGATATTTACAGTGCAAAGATATTTTTATAAT | 8.625 ± 0.078 |
| ATAACATAATAGCAACAATTTATTTCCTCTATAACA [CACACA_negctrl_site243] | 8.32 ± 0.33 |
| TTTTTTATATATGTGTGTGTGTGTGTGTCAAGTTTA [GTGCAC_negctrl_site460] | 8.6 ± 0.59 |
| ATATTTTTGTTCAGGAGTACAGTTCAAGATGAAAAT [XGTACX_site4178] | 8.67 ± 0.34 |
| TATAAATAATGTTAAACACACATACCGATATATAAT [CACACA_site5499] | 8.69 ± 0.52 |
| AAATTATTATGTATTTGTACACATAAGAATATAAAA [XGTACX_site6841] | 8.44 ± 0.4 |
| AATGGGGAAGGTTCTACACACAACGCAAATGCCTTA [CACACA_site2758] | 8.55 ± 0.51 |
| TCAGTTAATGTATATGTACACACGGTGAGTATATAT [CACACA_site3346] | 8.54 ± 0.2 |
| AGAGAAAGAAAGAAATGTACAAATACCTACACACAT [XGTACX_site3140] | 8.73 ± 0.64 |
| TATTTTTTTCATAACAGTACAATAATATATATTTTT [XGTACX_site5739] | 8.55 ± 0.42 |
| GCACACACAAAAAAAGCATGCATACTAGCTATTTTT [TGCATGCA_site18] | 8.67 ± 0.4 |
| CTATAAATGAATGTTTGTACTTAATAATAAAAGAAA [XGTACX_site3170] | 8.49 ± 0.43 |
| TTTTTTACAAATGATATCATTTCTTTAAATATTAAA [TGCATGCA_negctrl_site279] | 8.46 ± 0.4 |
| AAAAAACACCCATACACACACACACCGATATATATA [CACACA_site5808] | 8.69 ± 0.4 |
| TATTCGTGCAATAATAGTACACTTATAAATTATTCA [XGTACX_site8993] | 8.595 ± 0.064 |
| AATGAAATAAATAAGGGTACACATAAATATATATAT [XGTACX_site7006] | 9.52 ± 0.12 |
| AATCAAAAAAAATGTTGTACGCCTAATTATAATTAA [XGTACX_site8906] | 8.57 ± 0.31 |
